According to the supplement of paper PMC12217912:
Some of the results follow. Sequences were assembled here from the parent chain. Values near 0.05 are background.

B1: TEV protease; numbered along this chain (parent)
chain: MGESLFKGPRDYNPISSSICHLTNESDGHTTSLYGIGFGPFIITNKHLFRRNNGTLVVQSLHGVFKVKDTTTLQQHLVDGRDMIIIRMPKDFPPFPQKLKFREPQREERICLVTTNFQTKSMSSMVSDTSCTFPSGDGIFWKHWIQTKDGQCGSPLVSTRDGFIVGIHSASNFTNTNNYFTSVPKNFMELLTNQEAQQWVSGWRLNADSVLWGGHKVFMVKPEEPFQPVKEATQL

Variants of: B1
Assay: raw area under fraction-flipped curve 0-4 h after induction (AUC4h, not background-subtracted), DNA-recorder readout of cleavage of the substrate (dimensionless); higher = more cleavage of the substrate by the protease variant
Details: temperature: 34 °C; time window: 0-4 h after rhamnose induction
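Also: Bxb1 expression induced with 0.2% (w/v) L-rhamnose at OD600 near 0.5, cultures sampled hourly, flipped fraction per protease–substrate barcode pair counted by paired-end Illumina sequencing.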

| Variant | area with substrate CNLYFQS | area with substrate DNLYFQS | area with substrate HNLYFQS | area with substrate INLYFQS | area with substrate LNLYFQS | area with substrate MNLYFQS | area with substrate PNLYFQS | area with substrate SNLYFQS | area with substrate TNLYFQS | area with substrate WNLYFQS | area with substrate YNLYFQS | area with substrate FNLYFQS | area with substrate KNLYFQS | area with substrate NNLYFQS | area with substrate QNLYFQS | area with substrate VNLYFQS | area with substrate GNLYFQS | area with substrate RNLYFQS |
| --- | --- | --- | --- | --- | --- | --- | --- | --- | --- | --- | --- | --- | --- | --- | --- | --- | --- | --- |
| K230C | 0.0686 | 0.0831 | 0.0702 | 0.0552 | 0.0621 | 0.0731 | 0.0693 | 0.0719 | 0.0709 | 0.053 | 0.052 | – | – | – | – | – | – | – |
| K230N | 0.0534 | 0.077 | 0.053 | 0.0443 | – | 0.0284 | 0.078 | 0.0708 | 0.0945 | 0.0562 | – | 0.0645 | 0.0684 | 0.0602 | 0.0661 | 0.0642 | – | – |
| K230D | 0.0558 | 0.0721 | 0.0729 | – | 0.0831 | 0.0708 | 0.0626 | 0.0705 | 0.113 | 0.0587 | 0.0594 | 0.0608 | 0.0747 | 0.071 | 0.0705 | 0.0643 | 0.0677 | – |
| V229F | 0.0648 | 0.0653 | 0.061 | 0.0559 | 0.0615 | – | 0.0643 | 0.0639 | 0.062 | 0.0595 | 0.0652 | 0.0462 | – | 0.0493 | – | 0.0419 | 0.0556 | 0.0532 |
| V229C | 0.0381 | 0.106 | 0.0575 | 0.0677 | 0.0564 | 0.0726 | 0.0702 | – | 0.0635 | 0.0545 | 0.0539 | 0.0505 | 0.0631 | 0.0669 | – | 0.0519 | 0.0706 | 0.0542 |
| Q227L | 0.0628 | 0.0934 | 0.0615 | 0.0564 | – | 0.0683 | 0.0651 | 0.0743 | 0.0644 | 0.0651 | 0.0709 | 0.0674 | 0.022 | – | – | 0.0603 | 0.0717 | – |
| Q227K | 0.0524 | 0.0671 | 0.0737 | 0.0174 | – | 0.0799 | 0.0767 | 0.064 | 0.0485 | 0.059 | 0.0625 | 0.0501 | 0.0735 | 0.0604 | 0.0707 | – | 0.0683 | – |
| Q227V | 0.0753 | 0.0791 | 0.0662 | – | 0.0698 | 0.06 | 0.0643 | – | 0.0658 | 0.0563 | – | 0.0647 | 0.0798 | – | 0.0835 | 0.0608 | 0.0493 | – |
| Q234N | 0.0553 | 0.0724 | 0.0644 | 0.0646 | 0.0971 | 0.0644 | 0.0793 | 0.0649 | 0.0751 | 0.0647 | 0.0699 | – | 0.0593 | 0.0578 | – | – | 0.069 | 0.0741 |
| Q234W | 0.0747 | 0.0973 | 0.09 | 0.0703 | 0.0754 | – | 0.0697 | 0.063 | 0.0549 | 0.0601 | 0.0567 | – | – | 0.0673 | – | 0.0651 | 0.068 | 0.0472 |
| F226N | 0.0635 | 0.0695 | 0.0606 | – | 0.0693 | – | 0.0653 | 0.091 | 0.0577 | 0.044 | 0.0614 | – | 0.0664 | 0.0444 | 0.0402 | 0.0561 | 0.0685 | 0.0468 |
| F226H | 0.0666 | 0.109 | 0.0675 | 0.0642 | 0.0662 | 0.0643 | 0.0685 | 0.0741 | 0.0696 | 0.0463 | 0.0617 | 0.0644 | 0.0695 | 0.0517 | – | – | 0.0453 | 0.0783 |
| F226M | 0.0709 | 0.0685 | 0.0632 | 0.103 | 0.0578 | 0.0647 | 0.0633 | 0.0665 | 0.0636 | 0.0589 | 0.0573 | – | 0.0686 | 0.0659 | – | – | – | – |
| E231C | 0.0731 | 0.0658 | – | 0.049 | 0.0718 | 0.0658 | 0.0718 | 0.0609 | 0.0632 | 0.0636 | 0.062 | 0.0463 | 0.0669 | – | – | – | 0.0662 | – |
| E223I | 0.0578 | 0.0757 | – | 0.063 | – | 0.0643 | 0.0578 | 0.0578 | 0.0615 | – | 0.0594 | – | – | – | – | – | – | – |
| E223K | 0.0442 | 0.0802 | 0.069 | 0.0573 | 0.0854 | – | 0.0728 | 0.0612 | 0.0713 | 0.0599 | 0.0641 | 0.0616 | 0.0636 | 0.0565 | 0.0618 | – | – | 0.0605 |
